Test results reported in the supplement of paper PMC3334620.
The full ranking holds about 33,000 sequences; the median of “E-score (-0.5 to 0.5)” is about -0.035, and the highest 2% start at about 0.35. This is one part of the list.

The sequences below were run against T1, Pdr3 (UniProt P33200) (assay: PBM E-score (8-mer binding enrichment) (E-score (-0.5 to 0.5)); higher = stronger / more preferred TF binding; most listed sequences are background and not binding sites). Conditions: protein concentration: 200 nM; construct: GST-full length.
T1 sequence: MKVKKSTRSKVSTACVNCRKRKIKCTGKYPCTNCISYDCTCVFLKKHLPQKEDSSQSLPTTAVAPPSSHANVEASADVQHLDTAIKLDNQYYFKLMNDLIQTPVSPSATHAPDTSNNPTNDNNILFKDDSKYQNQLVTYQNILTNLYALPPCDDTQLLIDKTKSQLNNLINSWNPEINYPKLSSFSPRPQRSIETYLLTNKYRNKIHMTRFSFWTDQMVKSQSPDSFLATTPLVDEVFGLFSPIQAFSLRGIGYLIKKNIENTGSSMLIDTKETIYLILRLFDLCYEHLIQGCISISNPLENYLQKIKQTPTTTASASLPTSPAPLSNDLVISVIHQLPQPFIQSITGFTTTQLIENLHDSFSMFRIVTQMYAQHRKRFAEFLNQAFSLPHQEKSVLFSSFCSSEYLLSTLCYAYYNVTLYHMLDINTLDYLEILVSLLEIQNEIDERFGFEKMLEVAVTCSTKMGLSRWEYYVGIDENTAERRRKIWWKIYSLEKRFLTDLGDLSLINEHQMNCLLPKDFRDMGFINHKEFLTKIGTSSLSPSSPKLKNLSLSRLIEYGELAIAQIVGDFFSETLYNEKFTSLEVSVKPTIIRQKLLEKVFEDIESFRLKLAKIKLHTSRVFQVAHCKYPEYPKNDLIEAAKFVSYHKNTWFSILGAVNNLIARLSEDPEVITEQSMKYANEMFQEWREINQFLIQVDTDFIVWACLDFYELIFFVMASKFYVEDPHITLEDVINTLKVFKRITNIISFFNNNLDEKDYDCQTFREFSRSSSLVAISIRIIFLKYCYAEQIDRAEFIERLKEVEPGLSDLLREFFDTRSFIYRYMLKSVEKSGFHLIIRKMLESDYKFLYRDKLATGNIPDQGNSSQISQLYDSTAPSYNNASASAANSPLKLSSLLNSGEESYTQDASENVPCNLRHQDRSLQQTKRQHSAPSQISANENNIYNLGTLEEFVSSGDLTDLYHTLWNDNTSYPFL
Method in brief: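 E-scores (a modified Wilcoxon-Mann-Whitney statistic) were assigned by the Universal PBM Analysis Suite to every ungapped eight-base word pooled with its reverse complement. The input came from universal all-10-mer Agilent arrays made double-stranded by primer extension and probed with GST-tagged yeast transcription factors at about 100-200 nM. Fluorescent anti-GST detected bound protein, and masliner normalised the scans.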

Sequence | PBM E-score
AAAATGAT | 0.12
CTTTCCCA | 0.0901
ACGCTCTA | -0.232
CGCTGCGA | 0.0964
AGCGTAAC | -0.0998
GACGAGTC | -0.163
CCGTTACG | 0.203
AAAGTTGG | -0.0864
AATCTGCT | -0.15
AGGTTGCC | 0.101
AGGCACCT | -0.17
CCTGGCCC | 0.0706
CTCAATCA | 0.0455
CTAAGTAA | -0.0721
ACGTAACG | -0.111
AGCGCAAG | -0.195
CTCCGTCA | 0.128
AGTGGGTC | -0.0565
AATACGAA | 0.019
CATTTAGC | -0.17
GTAGAAGA | -0.194
CCGCCCTA | -0.0244
GAAGAGAC | 0.086
AACAGCTA | -0.0934
CACAACCC | -0.00342

Sequence | PBM E-score
AGCGTGCG | 0.127
CCATATAA | -0.00525
ACGCCGAT | -0.0606
AGCCAACT | -0.185
GAGCGTAA | -0.0778
GGAAGACC | 0.202
AACTGATT | -0.0719
CACATAAG | -0.259
GCAAAGGC | -0.14
CACCGGGA | 0.272
AGTATACT | -0.282
ATTAGAAA | -0.0537
AGTTTGGA | -0.0252
AAAATATA | -0.0002
ATGCAAGG | -0.194
CCCTTTGA | -0.217
GCCGCACA | 0.0419
ATATAACC | -0.102
AAACCTAG | -0.115
GCAGCCCA | -0.0597
TAGGGACA | 0.0407
GGAAGAAA | 0.0649
AAGAAGGG | -0.217
GCCAGGAC | -0.139
CTGTGGCC | -0.0745

Sequence | PBM E-score
AGCTGTTC | 0.0741
AAACAGGT | -0.185
CAATTAAG | -0.0734
GACCGTGA | 0.0874
AAAGCAAA | 0.0583
CACCCATC | -0.175
CTATAAAG | -0.0652
GATTTGCC | 0.0658
TCAACTCA | -0.096
GAGCCAAA | -0.0464
AATCAGGT | 0.0601
AATCTCCC | -0.0436
AAGTTCAA | 0.146
AGCTACCA | -0.0482
CGCGTGCA | -0.167
CGAATCAA | 0.0151
CTCAGTCC | -0.06
CAACCATA | -0.0696
ATGCATAG | -0.236
CGCTAAGA | 0.0694
GCGTAAGC | -0.21
CCGTGTAG | 0.0242
CAGCTATA | 0.016
CCAGCAGC | -0.066
AGGGTCAA | -0.0253

Sequence | PBM E-score
GGTAATAC | 0.18
ATAAGTTA | -0.086
AGCCCTTA | -0.202
GTCGTAAC | -0.0674
ACCGATAA | 0.0979
GAAGCGCA | 0.24
GCCTCTAC | -0.346
ATACTAAG | -0.0603
CCTTGCCA | -0.0808
GAATTCCC | -0.0143
CCGAGAAA | 0.357
ATGCTGCC | -0.0294
ACTAGCAG | -0.191
CTGTAGTC | -0.179
AGCTCTAC | -0.108
CACGTCGG | 0.142
CAATCGGA | 0.332
CCTGTACG | -0.19
AGTGTCGG | 0.177
ATAAAAGC | 0.0167
AGTGGTTC | 0.00772
TTACCAAA | -0.105
GATGAGGC | -0.0831
ACGTCAGT | -0.112
GACGTATA | -0.17

Sequence | PBM E-score
CACGCCAA | -0.0967
CGCGGTTA | 0.188
ACGTTTTG | -0.288
GGCGAGCA | 0.0206
GTCTAAAA | -0.204
CCGGTGAG | 0.154
GGATTGCA | 0.185
AAAGGTGA | -0.148
GGGAGATA | 0.0536
CCGATCGC | 0.00975
AGAGAATC | 0.0389
CGAACACA | 0.123
TCATCGAA | -0.103
AGTATGAT | 0.013
GCCCGCGC | 0.336
AATCGTCA | -0.112
CAGGCAGG | -0.165
CACCCCTG | -0.105
ACCGTAGG | -0.303
AATCGTGA | -0.158
CGCGTTAA | 0.0575
CGGCGACG | 0.272
CCTATCCG | 0.202
AGAAAAGG | -0.079
TACATACA | 0.0677

Sequence | PBM E-score
GATGATAC | 0.131
ATAAACGG | 0.208
GCTAATAA | -0.0445
AGCAGGCT | -0.259
CCAGAACG | 0.0264
ACCGGTCA | 0.147
ATCGCCCG | 0.266
CTTACATC | -0.0486
TACCGTGA | -0.00502
GAGACGGA | 0.31
ACTGTCAA | -0.151
CTTGAGTC | -0.194
ATAGAGCG | -0.0724
ATGGTGCA | -0.134
CTGACTTA | 0.0275
ACTTCTCT | -0.207
AATTGCCC | 0.107
AATGTACT | -0.0131
CTAGTCCC | -0.146
CAACAGAC | -0.11
TGACGGCA | 0.135
CAGAAAAC | -0.12
ACGGCTCG | 0.222
GTCAACAC | 0.071
CAGCTGTA | -0.0308

Sequence | PBM E-score
CACCGGTA | 0.15
TATTCGAA | -0.234
GTACGCAC | -0.119
GAGTCCAA | -0.101
CCATCGTC | 0.024
CACTGGTA | -0.146
GGTACACC | -0.179
AATAGAAT | -0.107
ATCACTAG | -0.0291
CCGCTTTA | 0.0157
GCCCGAAA | 0.153
ATAGATTA | -0.0055
CATCGCAG | -0.137
GCCGTCCA | 0.159
AGACGCTG | -0.129
GGGTGTTA | 0.0693
ATGACCGC | 0.129
CTTTCCGA | 0.413
CGCGAACA | 0.194
AATTGCTC | -0.167
ACTGATCA | -0.052
CACATTCG | -0.0447
